Experimental findings from paper PMC10217940 are described below.

Results are given in words; binding and its absence hold for the method and conditions named. Binding seen in cells or lysates may run through a third protein. Some results given as binding are weak or reduced against the parent protein; the word gives no strength. Tags and fused reporters may be left off the sequences shown.

The target of the assay is T1, IMPβ1:YFP^N fusion protein (Arabidopsis) (UniProt Q9FJD4).
T1 sequence: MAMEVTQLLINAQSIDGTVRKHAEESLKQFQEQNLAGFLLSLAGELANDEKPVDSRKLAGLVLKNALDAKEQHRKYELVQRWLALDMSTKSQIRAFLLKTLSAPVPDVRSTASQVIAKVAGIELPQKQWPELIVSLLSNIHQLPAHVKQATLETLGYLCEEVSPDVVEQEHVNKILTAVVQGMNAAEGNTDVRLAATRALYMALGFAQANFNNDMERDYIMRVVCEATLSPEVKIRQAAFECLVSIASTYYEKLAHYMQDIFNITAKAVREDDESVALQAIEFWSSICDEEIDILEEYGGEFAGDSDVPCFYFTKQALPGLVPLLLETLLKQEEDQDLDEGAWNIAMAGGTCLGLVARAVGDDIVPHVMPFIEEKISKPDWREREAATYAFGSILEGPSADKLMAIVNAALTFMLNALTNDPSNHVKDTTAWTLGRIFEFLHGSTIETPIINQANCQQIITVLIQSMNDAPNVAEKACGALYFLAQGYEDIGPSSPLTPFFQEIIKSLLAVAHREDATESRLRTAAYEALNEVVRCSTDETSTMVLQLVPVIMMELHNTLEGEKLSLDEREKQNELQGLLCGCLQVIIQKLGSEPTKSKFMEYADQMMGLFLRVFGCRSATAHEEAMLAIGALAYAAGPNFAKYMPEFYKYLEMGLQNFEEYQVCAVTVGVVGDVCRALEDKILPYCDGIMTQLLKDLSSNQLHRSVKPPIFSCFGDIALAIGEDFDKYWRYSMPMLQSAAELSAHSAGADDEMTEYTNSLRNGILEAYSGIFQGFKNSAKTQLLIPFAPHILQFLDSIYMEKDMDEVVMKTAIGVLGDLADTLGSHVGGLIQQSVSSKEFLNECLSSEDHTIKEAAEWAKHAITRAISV
Kind of assay: split reporter; YFP BiFC in Nicotiana benthamiana leaves, confocal laser-scanning microscopy; IMPβ1 fused to YFP^N, EIN2C or EIN2N fused to YFP^C.

B1: EIN2C:YFP^C fusion protein (domain or fragment, UniProt Q9S814 454-1294)
chain: LWLAATPLKSASNRAEAQIWNMDAQNALSYPSVQEEEIERTETRRNEDESIVRLESRVKDQLDTTSVTSSVYDLPENILMTDQEIRSSPPEERELDVKYSTSQVSSLKEDSDVKEQSVLQSTVVNEVSDKDLIVETKMAKIEPMSPVEKIVSMENNSKFIEKDVEGVSWETEEATKAAPTSNFTVGSDGPPSFRSLSGEGGSGTGSLSRLQGLGRAARRHLSAILDEFWGHLYDFHGQLVAEARAKKLDQLFGTDQKSASSMKADSFGKDISSGYCMSPTAKGMDSQMTSSLYDSLKQQRTPGSIDSLYGLQRGSSPSPLVNRMQMLGAYGNTTNNNNAYELSERRYSSLRAPSSSEGWEHQQPATVHGYQMKSYVDNLAKERLEALQSRGEIPTSRSMALGTLSYTQQLALALKQKSQNGLTPGPAPGFENFAGSRSISRQSERSYYGVPSSGNTDTVGAAVANEKKYSSMPDISGLSMSARNMHLPNNKSGYWDPSSGGGGYGASYGRLSNESSLYSNLGSRVGVPSTYDDISQSRGGYRDAYSLPQSATTGTGSLWSRQPFEQFGVAERNGAVGEELRNRSNPINIDNNASSNVDAEAKLLQSFRHCILKLIKLEGSEWLFGQSDGVDEELIDRVAAREKFIYEAEAREINQVGHMGEPLISSVPNCGDGCVWRADLIVSFGVWCIHRVLDLSLMESRPELWGKYTYVLNRLQGVIDPAFSKLRTPMTPCFCLQIPASHQRASPTSANGMLPPAAKPAKGKCTTAVTLLDLIKDVEMAISCRKGRTGTAAGDVAFPKGKENLASVLKRYKRRLSNKPVGMNQDGPGSRKNVTAYGSLG
Turning to B1, the binding entry is given as “binds”.

B2: EIN2N:YFP^C fusion protein (domain or fragment, UniProt Q9S814 1-453)
chain: MEAEIVNVRPQLGFIQRMVPALLPVLLVSVGYIDPGKWVANIEGGARFGYDLVAITLLFNFAAILCQYVAARISVVTGKHLAQICNEEYDKWTCMFLGIQAEFSAILLDLTMVVGVAHALNLLFGVELSTGVFLAAMDAFLFPVFASFLENGMANTVSIYSAGLVLLLYVSGVLLSQSEIPLSMNGVLTRLNGESAFALMGLLGASIVPHNFYIHSYFAGESTSSSDVDKSSLCQDHLFAIFGVFSGLSLVNYVLMNAAANVFHSTGLVVLTFHDALSLMEQVFMSPLIPVVFLMLLFFSSQITALAWAFGGEVVLHDFLKIEIPAWLHRATIRILAVAPALYCVWTSGADGIYQLLIFTQVLVAMMLPCSVIPLFRIASSRQIMGVHKIPQVGEFLALTTFLGFLGLNVVFVVEMVFGSSDWAGGLRWNTVMGTSIQYTTLLVSSCASLCLI
With B2, the binding entry was “no binding”.
